Results from PubChem BioAssay AID1346428 (National Center for Advancing Translational Sciences (NCATS), 2018).
The campaign covered roughly 48,000 compounds. About 1,200 (2.5%) were called active. Roughly 2% stayed inconclusive and do not appear here.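 The calls were made as follows: active = activation of at least 60% and not above a set upper limit (about 1 call in 100 departs from these limits); inconclusive = activation of 40% to 60%, or above that upper limit; inactive = activation under 40%.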 The list shows a part of the results.

target: Probable G-protein coupled receptor 32 (Homo sapiens) (UniProt O75388); assay: qHTS for Agonists of Human Resolvin D1 Receptor DRV1; settings: CHO-K1 GPR32 beta-arrestin PathHunter luminescence, 90 min; at 76.9 µM; stronger effect = higher value; zero percent set by DMSO-only wells; also: 0% is about no effect
Summary of the method: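 Cells are plated overnight, treated with compounds in DMSO for 90 minutes at 37 °C, and developed with PathHunter detection reagent for 1 hour before luminescence is read; signal reflects beta-arrestin binding to GPR32 in engineered CHO-K1 cells.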

UniProt O75388, sequence (O75388 whole entry, looked up): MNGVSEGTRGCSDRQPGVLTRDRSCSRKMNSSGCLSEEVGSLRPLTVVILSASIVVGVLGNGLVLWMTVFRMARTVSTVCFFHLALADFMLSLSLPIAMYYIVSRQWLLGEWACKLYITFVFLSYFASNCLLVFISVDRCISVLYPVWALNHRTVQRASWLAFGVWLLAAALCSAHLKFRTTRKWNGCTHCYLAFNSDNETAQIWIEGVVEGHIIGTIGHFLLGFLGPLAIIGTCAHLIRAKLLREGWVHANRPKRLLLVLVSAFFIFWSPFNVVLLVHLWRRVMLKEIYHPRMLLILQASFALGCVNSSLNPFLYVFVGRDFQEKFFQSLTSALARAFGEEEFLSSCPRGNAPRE

activation, inactive:
CCOc1ccccc1NC(=O)Cn1c(=O)n(-c2ccc(F)cc2)c(=O)c2c3c(sc21)CN(C(C)=O)CC3 -4.92%
Cc1ccc(CCNC(=O)c2ccc(CNS(=O)(=O)c3ccccc3)cc2)cc1 45.2%
O=C(CN1CCSc2ccccc21)N1CCCCC1 -32.6%
CCc1ccc(-c2nn(CC(=O)NCc3ccccc3)c3c2cnc2ccc(C)cc23)cc1 -8.44%
CC(C)c1ccc(NC(=O)CCS(=O)(=O)c2cccc3nonc23)cc1 -3.03%
CCCN(C(=O)COc1cc(=O)n(CC)c2ccccc12)c1ccc(C(C)C)cc1 -5.94%
CCc1ccc(-n2nc(C)c3c(C(=O)Nc4cc(C)c(Cl)cc4OC)cc(C)nc32)cc1 11.7%
Cc1ccc(NC(=O)Cn2c(=O)n(CCc3ccccc3)c(=O)c3c4c(sc32)CCCC4)c(C)c1 -8.76%
COc1cc(/C=C(\C#N)C(=O)Nc2ccc(C)cc2)ccc1OCc1cc(=O)n2nc(C)sc2n1 -3.43%
CCc1cccc(NS(=O)(=O)c2c(C)nc3sc(CC)nn3c2=O)c1 19.5%
COc1ccc(N2CC(NC(=O)c3cc4ccccc4o3)CC2=O)cc1OC (configuration not stated) 46.8%
COC(=O)c1ccc(NC(=O)c2cc(=O)c3ccc(C)cc3o2)cc1 -3.82%
Cc1ccc(N2CC(NC(=O)c3ccc(S(=O)(=O)N4CCCCC4)cc3)CC2=O)cc1 (configuration not stated) -7.57%
CCOC(=O)c1cc(NC(=O)c2ccc(C)cc2)c(=O)n2c1oc1ccc(Cl)cc12 -5.09%
O=c1oc2ccc(Br)cc2cc1-c1csc(-c2ccccc2)n1 -3.76%
CN(C(=O)C1=CC(c2ccc3c(c2)OCO3)=NS(=O)(=O)N1C)c1ccccc1 -12.4%
O=C(CSc1nc2c(c(=O)[nH]1)CN(Cc1ccc3c(c1)OCO3)CC2)Nc1cccc(Cl)c1 4.91%
CCCC(=O)Nc1nnc2n1CCS2 -9.2%
Cc1nc2c(c(C)nn2-c2ccccc2)c(C)c1CCC(=O)NCCc1ccccc1 -6.52%
Cn1nnc2c(NCc3ccccc3Cl)ncnc21 -10.8%
CCOc1ccc(Oc2nc(NC)nc(N3CCOCC3)n2)nn1 -4.89%
CCOC(=O)c1noc2ncnc(N3CCC(C)CC3)c12 0.499%
COc1ccc(CC(=O)NCc2nc3cccnc3n2Cc2ccc(C)cc2)cc1OC -8.17%
Cc1cccc(Cn2cc3c(=O)n(CC(=O)Nc4ccc(C)c(F)c4)nc-3c3cc(F)ccc32)c1 11.4%
CCN(CC)C(=O)c1sc2c(c1C)c(=O)n(Cc1ccccc1)c(=O)n2Cc1ccc(Cl)cc1 -10.6%
O=C(CCS(=O)(=O)c1nc(-c2ccc3c(c2)OCO3)cc(C(F)(F)F)n1)Nc1ccccc1F -37.4%
COc1ccc(Nc2nc3ccccc3c3nnc(C)n23)cc1Cl 1.61%
CCN(C(=O)CCn1cnc2onc(-c3ccc(F)cc3)c2c1=O)c1ccc(OC)cc1 2.74%
CCc1cccc(-n2nnc(-c3nc(-c4ccccc4Cl)no3)c2N)c1 11.2%
Cc1cccc(N2CCN(C(=O)c3cnn(-c4cccc(Cl)c4C)c3C3CCNCC3)CC2)c1C -31.4%
CN1Cc2cc(C(=O)N3CCC(C4CCNCC4)CC3)ccc2NC(CC(=O)O)C1=O (configuration not stated) -7.31%
Cc1ccc(NC(=O)CSc2cn(CC(=O)N3CCCCCC3)c3ccccc23)cc1 -13.5%
CCCCCCCCCCCCCCCCCCOCC(O)CO (configuration not stated) 10.6%
Cn1nnc2c(NCCc3ccccc3)ncnc21 -6.27%
Cc1cc(C)c(NC(=O)Cn2c(=O)n(Cc3ccco3)c(=O)c3ccc(C(=O)NC4CCCC4)cc32)c(C)c1 -6.12%
O=C(NCC(c1cccnc1)N1CCc2ccccc2C1)C(=O)Nc1ccc(Cl)cc1 (configuration not stated) -16.5%
Cc1ccc(-c2noc(CSc3nnc(Cc4ccccc4)n3-c3cccc(C)c3)n2)cc1 3.99%
Cc1ccc2c(c1)N(CC(=O)NCc1ccccc1Br)C(=O)c1cccnc1O2 -15.9%
CC(C)c1ccc(NC(=O)c2cccc3c2C(=O)N(C2CCCCC2)C3)cc1 -14.5%
CCCc1nc2ccccc2n2c(-c3ccc(C)cc3)c3c(=O)n(C)c(=O)n(C)c3c12 -39.4%
C[N+]1(C)CCC(OC(=O)C(O)(c2ccccc2)C2CCCC2)C1 (configuration not stated) -6%
C[N+](C)(CCOc1ccccc1)Cc1cccs1 -0.706%
